Data: PubChem BioAssay AID504333 (National Center for Advancing Translational Sciences (NCATS), 2011)
The whole screen tested about 360,000 compounds, of which about 16,000 (4.4%) were called active. Inconclusive means that the source gave no clear call. Such entries were picked first, then a sample of the others. Calls come from the whole dose curve; as a rule, active = well fitted inhibition curve with a large enough effect; inconclusive = small, poorly fitted or top-dose-only effect; inactive = no such curve, though single readings can be large or run the other way. A potency beside an inconclusive call is a rough fit, not a confirmed value.

What follows are compounds tested against Bromodomain adjacent to zinc finger domain protein 2B (Homo sapiens) (UniProt Q9UIF8) (assay: qHTS Assay for Inhibitors of BAZ2B). Conditions: AlphaScreen BAZ2B-H3K14Ac peptide displacement; activity change, negative = inhibition: at 114 µM (top of the series).
Procedure, shortened: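 BAZ2B (50 nM) with biotin-H3(5-23)K14Ac peptide (50 nM) in PBS pH 7.4, 0.01% Tween-20, preformed 30 min, then compound 30 min at room temperature; top concentration 110uM. AlphaScreen streptavidin donor/nickel chelate acceptor beads (10 ug/mL final), 20 min dark, signal read.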
% is set by controls: 0 for no effect and ±100 for the full control effect; potency is the fitted concentration of half-maximal effect; tags give direction and shape of the fitted curve.
Note: nearly all actives have a fitted effect of over 60% in size.

Sequence of UniProt Q9UIF8 (Q9UIF8 whole entry, looked up, the tested form may be a part): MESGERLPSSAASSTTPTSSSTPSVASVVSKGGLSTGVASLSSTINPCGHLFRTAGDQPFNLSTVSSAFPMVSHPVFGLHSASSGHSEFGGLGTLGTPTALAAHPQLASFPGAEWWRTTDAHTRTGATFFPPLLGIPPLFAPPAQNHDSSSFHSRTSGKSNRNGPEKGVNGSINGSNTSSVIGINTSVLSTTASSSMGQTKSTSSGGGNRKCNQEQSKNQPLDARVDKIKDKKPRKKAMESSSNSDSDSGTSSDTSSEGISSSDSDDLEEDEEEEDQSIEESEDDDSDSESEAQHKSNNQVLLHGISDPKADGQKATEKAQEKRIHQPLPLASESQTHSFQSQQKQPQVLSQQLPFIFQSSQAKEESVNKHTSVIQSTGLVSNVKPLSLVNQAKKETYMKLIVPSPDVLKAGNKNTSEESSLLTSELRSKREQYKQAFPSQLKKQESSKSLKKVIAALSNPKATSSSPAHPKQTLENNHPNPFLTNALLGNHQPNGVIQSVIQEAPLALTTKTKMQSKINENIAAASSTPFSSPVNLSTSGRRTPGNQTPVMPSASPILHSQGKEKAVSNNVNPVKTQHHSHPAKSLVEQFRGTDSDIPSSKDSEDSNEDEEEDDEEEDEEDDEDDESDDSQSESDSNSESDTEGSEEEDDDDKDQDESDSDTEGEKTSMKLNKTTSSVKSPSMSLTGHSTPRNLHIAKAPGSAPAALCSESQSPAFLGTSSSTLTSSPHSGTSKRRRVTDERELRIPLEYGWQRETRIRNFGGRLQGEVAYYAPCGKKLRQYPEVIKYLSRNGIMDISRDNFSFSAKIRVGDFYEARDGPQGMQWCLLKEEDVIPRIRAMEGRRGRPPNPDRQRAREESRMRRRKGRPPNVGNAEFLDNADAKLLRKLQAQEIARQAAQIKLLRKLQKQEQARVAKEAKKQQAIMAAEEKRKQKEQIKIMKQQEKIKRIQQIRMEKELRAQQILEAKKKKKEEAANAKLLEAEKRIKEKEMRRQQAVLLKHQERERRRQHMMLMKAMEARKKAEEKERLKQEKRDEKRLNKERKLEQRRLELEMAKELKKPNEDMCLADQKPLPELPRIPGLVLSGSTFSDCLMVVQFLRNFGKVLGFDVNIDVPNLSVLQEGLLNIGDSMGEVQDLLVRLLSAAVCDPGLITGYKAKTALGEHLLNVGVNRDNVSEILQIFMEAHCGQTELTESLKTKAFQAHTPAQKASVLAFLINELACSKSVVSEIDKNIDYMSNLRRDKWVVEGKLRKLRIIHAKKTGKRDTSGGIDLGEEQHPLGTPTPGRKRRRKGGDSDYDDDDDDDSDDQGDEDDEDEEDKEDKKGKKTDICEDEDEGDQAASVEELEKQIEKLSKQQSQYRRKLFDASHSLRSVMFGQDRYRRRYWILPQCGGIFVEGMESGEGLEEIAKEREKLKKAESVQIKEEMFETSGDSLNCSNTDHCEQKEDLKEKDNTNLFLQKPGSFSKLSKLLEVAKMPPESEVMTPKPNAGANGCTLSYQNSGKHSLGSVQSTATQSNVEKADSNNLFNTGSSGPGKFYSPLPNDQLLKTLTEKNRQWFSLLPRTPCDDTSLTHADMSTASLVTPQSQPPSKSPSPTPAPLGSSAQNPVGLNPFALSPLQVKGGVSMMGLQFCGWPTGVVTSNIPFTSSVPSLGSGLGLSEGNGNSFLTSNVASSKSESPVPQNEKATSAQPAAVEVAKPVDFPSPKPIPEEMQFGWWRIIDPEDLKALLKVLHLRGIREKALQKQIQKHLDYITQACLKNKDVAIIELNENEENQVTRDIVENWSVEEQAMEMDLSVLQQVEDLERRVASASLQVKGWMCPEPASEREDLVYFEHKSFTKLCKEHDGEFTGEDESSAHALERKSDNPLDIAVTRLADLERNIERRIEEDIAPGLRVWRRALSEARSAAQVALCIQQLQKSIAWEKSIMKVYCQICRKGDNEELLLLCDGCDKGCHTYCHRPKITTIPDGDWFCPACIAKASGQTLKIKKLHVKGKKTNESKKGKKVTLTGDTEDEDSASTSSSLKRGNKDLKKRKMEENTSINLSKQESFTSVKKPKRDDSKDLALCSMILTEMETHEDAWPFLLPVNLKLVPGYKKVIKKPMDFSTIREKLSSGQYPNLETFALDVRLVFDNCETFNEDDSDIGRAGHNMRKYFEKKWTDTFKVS

Q: For CCN(CC)S(=O)(=O)c1ccc(N)cc1, which “activity change, negative = inhibition” value is on record?
A: inactive: -1.34%

Q: With CCN(CC)c1ccc(/C=C/c2cccc[n+]2C)c(OC)c1 as the compound, how does the Potency read?
A: active: 50.1 µM

Q: How did the Potency turn out when O=C1CC(c2ccco2)c2ccc3ccccc3c2N1 (stereo not drawn) was run?
A: active: 50.1 µM

Q: How did the Potency turn out when CN(CCO)c1cc(NCCCN2CCC(Cc3ccccc3)CC2)c2nonc2c1[N+](=O)[O-] was run?
A: inconclusive: 39.8 µM [inhibitor, partial curve]

Q: For Cc1cc(C)c(NC(=S)NC(CO)(CO)CO)c(C)c1, which “activity change, negative = inhibition” value is on record?
A: inactive: 1.88%

Q: Which Potency does the source give for CCc1ccccc1NC(=O)CSc1ccsc1[N+](=O)[O-] here?
A: active: 50.1 µM

Q: Cc1ccc(CCNS(=O)(=O)c2ccc3c(c2)NC(=O)C(C)C(=O)N3)cc1 (stereo not drawn) was tested. Which Potency did it give?
A: inconclusive: 70.8 µM [inhibitor, single point]

Q: Which “activity change, negative = inhibition” value does the source give for COc1ccc(/C=N/N(C)C2=NCCN2)c(OC)c1OC here?
A: inactive: -2.74%

Q: For O=C(COC(=O)c1ccc(Cl)c(S(=O)(=O)N2CCCCC2)c1)NCCc1ccccc1, which “activity change, negative = inhibition” value is on record?
A: inactive: 30.3%

Q: Which Potency does the source give for O=C(CC1Nc2cccc3cccc(c23)NC1=O)Nc1ccc(F)cc1 (stereo not drawn) here?
A: inconclusive: 50.1 µM [inhibitor, partial curve]

Q: How did the “activity change, negative = inhibition” value turn out when O=C(NCc1ccc(Cl)cc1)NCc1ccc(Cl)cc1 was run?
A: inactive: -10.7%

Q: How did the Potency turn out when Cc1ccc(C(=O)CC2(O)C(=O)N(Cc3ccccc3)c3ccccc32)c(C)c1 (stereo not drawn) was run?
A: active: 10 µM

Q: Which Potency does the source give for Cc1ccccc1Nc1c(-c2ccccn2)nc2ccccn12 here?
A: active: 10 µM

Q: Which “activity change, negative = inhibition” value does the source give for O=C(/C=C/c1ccccc1)Oc1cccc(C(=S)N2CCOCC2)c1 here?
A: inactive: 0.0377%

Q: Which Potency does the source give for C/C(=N\Nc1nc2c(s1)CCCC2)c1ccc(Cl)cc1 here?
A: active: 44.7 µM

Q: How did the Potency turn out when CC(C)c1ccc(N(CC(=O)NCCSC(C)(C)C)S(C)(=O)=O)cc1 was run?
A: inconclusive: 100 µM [inhibitor, single point]

Q: Which Potency does the source give for Cc1cc(/C=N/NC(=O)CC2(C)OCCO2)c(C)n1-c1cc(Cl)cc(Cl)c1 here?
A: inconclusive: 89.1 µM [inhibitor, single point]

Q: Which Potency does the source give for CCOC(=O)c1ccc2[nH]c3c(c2c1)CCCC3O (stereo not drawn) here?
A: inconclusive: 89.1 µM [inhibitor, single point]

Q: With COc1ccc(OCCn2ccnc2C)cc1 as the compound, how does the Potency read?
A: active: 56.2 µM

Q: How did the Potency turn out when COc1ccc(-c2ccnc3nc(N4CCN(c5ccccc5)CC4)nn23)cc1 was run?
A: inconclusive: 89.1 µM [inhibitor, single point]

Q: Which Potency does the source give for O=S(=O)([O-])CCC[n+]1c(SCCCS(=O)(=O)O)sc2ccc(Cl)cc21 here?
A: inconclusive: 79.4 µM [inhibitor, single point]

Q: For Cc1ccc(N(Cc2cc3ccccc3[nH]c2=O)S(C)(=O)=O)cc1, which “activity change, negative = inhibition” value is on record?
A: inactive: -8.46%

Q: For CCCOc1ccc(N2C(=O)CC(N(CCc3ccccc3)C(=O)c3ccccc3)C2=O)cc1 (stereo not drawn), which “activity change, negative = inhibition” value is on record?
A: inactive: -5.89%
